Experimental data published in the supplement of paper PMC8728848.
The other results are listed elsewhere or left out.

How the values were obtained:
Experiment in all cases: glycan array binding signal (z-score within array); higher = stronger binding
Details in all cases: glycan notation: IUPAC condensed, linker removed
[1] = biological target: Gal(b1-4)GlcNAc(b1-3)Gal(b1-4)GlcNAc(b1-6)[Gal(b1-3)]GalNAc
Method in brief: (§1)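 The Consortium for Functional Glycomics database supplied 3228 glycan arrays, of which those lacking an available protein sequence were dropped. The binding signal, a within-array Z-score, was averaged across arrays of the same protein sequence and across linkers. Negative scores can be read as non-binding.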

[2] = biological target: Gal(b1-4)GlcNAc(b1-3)Gal(b1-4)[Fuc(a1-3)]GlcNAc(b1-3)Gal(b1-4)[Fuc(a1-3)]GlcNAc
Method in brief: as §1

[3] = biological target: Gal(b1-4)GlcNAc(b1-3)GalNAc
Method in brief: as §1

[4] = biological target: Gal(b1-4)GlcNAc(b1-3)[Fuc(a1-3)GlcNAc(b1-6)]Gal(b1-4)Glc
Method in brief: as §1

[5] = biological target: Gal(b1-4)GlcNAc(b1-3)[Gal(b1-4)GlcNAc(b1-6)]Gal(b1-4)GlcNAc
Method in brief: as §1

[6] = biological target: Gal(b1-4)GlcNAc(b1-3)[GlcNAc(b1-6)]Gal(b1-4)GlcNAc
Method in brief: as §1

[7] = biological target: Gal(b1-4)GlcNAc(b1-6)Gal(b1-4)GlcNAc
Method in brief: as §1

[8] = biological target: Gal(b1-4)GlcNAc(b1-6)GalNAc
Method in brief: as §1

[9] = biological target: Gal(b1-4)GlcNAc(b1-6)[Gal(b1-3)]GalNAc
Method in brief: as §1

[10] = biological target: Gal(b1-4)GlcNAc(b1-6)[Gal(b1-4)GlcNAc(b1-3)]GalNAc
Method in brief: as §1

Gal(b1-4)GlcNAc6P = biological target: Gal(b1-4)GlcNAc6P
Method in brief: as §1

Gal(b1-6)Gal = biological target: Gal(b1-6)Gal
Method in brief: as §1

Gal3S(b1-3)GalNAc = biological target: Gal3S(b1-3)GalNAc
Method in brief: as §1

Gal3S(b1-3)GlcNAc = biological target: Gal3S(b1-3)GlcNAc
Method in brief: as §1

[11] = biological target: Gal3S(b1-3)[Fuc(a1-4)]GlcNAc
Method in brief: as §1

Gal3S(b1-4)Glc = biological target: Gal3S(b1-4)Glc
Method in brief: as §1

Gal3S(b1-4)Glc6S = biological target: Gal3S(b1-4)Glc6S
Method in brief: as §1

Gal3S(b1-4)GlcNAc = biological target: Gal3S(b1-4)GlcNAc
Method in brief: as §1

[12] = biological target: Gal3S(b1-4)[Fuc(a1-3)]Glc6S
Method in brief: as §1

[13] = biological target: Gal3S(b1-4)[Fuc(a1-3)]GlcNAc
Method in brief: as §1

[14] = biological target: Gal3S(b1-4)[Fuc(a1-3)]GlcNAc6S
Method in brief: as §1

Gal3S4S(b1-4)GlcNAc = biological target: Gal3S4S(b1-4)GlcNAc
Method in brief: as §1

Gal3S6S(b1-4)GlcNAc = biological target: Gal3S6S(b1-4)GlcNAc
Method in brief: as §1

Gal3S6S(b1-4)GlcNAc6S = biological target: Gal3S6S(b1-4)GlcNAc6S
Method in brief: as §1

Gal4S(b1-4)GlcNAc = biological target: Gal4S(b1-4)GlcNAc
Method in brief: as §1

Gal4S6S(b1-4)GlcNAc = biological target: Gal4S6S(b1-4)GlcNAc
Method in brief: as §1

Gal6P(b1-4)GlcNAc = biological target: Gal6P(b1-4)GlcNAc
Method in brief: as §1

Gal6S(b1-3)GlcNAc = biological target: Gal6S(b1-3)GlcNAc
Method in brief: as §1

Gal6S(b1-3)GlcNAc6S = biological target: Gal6S(b1-3)GlcNAc6S
Method in brief: as §1

Gal6S(b1-4)Glc = biological target: Gal6S(b1-4)Glc
Method in brief: as §1

Gal6S(b1-4)Glc6S = biological target: Gal6S(b1-4)Glc6S
Method in brief: as §1

Gal6S(b1-4)GlcNAc = biological target: Gal6S(b1-4)GlcNAc
Method in brief: as §1

Gal6S(b1-4)GlcNAc6S = biological target: Gal6S(b1-4)GlcNAc6S
Method in brief: as §1

GalNAc(a1-3)Gal = biological target: GalNAc(a1-3)Gal
Method in brief: as §1

GalNAc(a1-3)GalNAc = biological target: GalNAc(a1-3)GalNAc
Method in brief: as §1

[15] = biological target: GalNAc(a1-3)GalNAc(b1-3)Gal(a1-4)Gal(b1-4)Glc
Method in brief: as §1

[16] = biological target: GalNAc(a1-3)GalNAc(b1-3)Gal(a1-4)Gal(b1-4)GlcNAc
Method in brief: as §1

GalNAc(b1-3)Gal = biological target: GalNAc(b1-3)Gal
Method in brief: as §1

[17] = biological target: GalNAc(b1-3)Gal(a1-4)Gal(b1-4)GlcNAc
Method in brief: as §1

[18] = biological target: GalNAc(b1-3)Gal(a1-4)Gal(b1-4)GlcNAc(b1-3)Gal(b1-4)Glc
Method in brief: as §1

[19] = biological target: GalNAc(b1-3)Gal(a1-6)Gal(b1-4)Glc
Method in brief: as §1

GalNAc(b1-3)GalNAc = biological target: GalNAc(b1-3)GalNAc
Method in brief: as §1

GalNAc(b1-3)GlcNAc = biological target: GalNAc(b1-3)GlcNAc
Method in brief: as §1

GalNAc(b1-4)Gal(b1-4)Glc = biological target: GalNAc(b1-4)Gal(b1-4)Glc
Method in brief: as §1

GalNAc(b1-4)GlcNAc = biological target: GalNAc(b1-4)GlcNAc
Method in brief: as §1

B1: LecB LY19 (Pseudomonas aeruginosa) (protein)
chain: MATQGVFTLPANTQFGVTAFANSAGTQTVNVQVNNETVATFTGQSTNNGIIGSKVLNSGGGGKVQILVSVNGRSSDLVSAQVILANELNFALVGSEDSTDNDYNDAVVVINWPLG
- glycan array binding signal (z-score) [1]: -0.545
- glycan array binding signal (z-score) [2]: 1.65
- glycan array binding signal (z-score) [3]: -0.546
- glycan array binding signal (z-score) [4]: 0.408
- glycan array binding signal (z-score) [5]: -0.555
- glycan array binding signal (z-score) [6]: 0.575
- glycan array binding signal (z-score) [7]: -0.533
- glycan array binding signal (z-score) [8]: -0.411
- glycan array binding signal (z-score) [9]: -0.44
- glycan array binding signal (z-score) [10]: -0.539
- glycan array binding signal (z-score) (Gal(b1-4)GlcNAc6P): -0.555
- glycan array binding signal (z-score) (Gal(b1-6)Gal): -0.534
- glycan array binding signal (z-score) (Gal3S(b1-3)GalNAc): -0.481
- glycan array binding signal (z-score) (Gal3S(b1-3)GlcNAc): -0.54
- glycan array binding signal (z-score) [11]: 3.07
- glycan array binding signal (z-score) (Gal3S(b1-4)Glc): -0.531
- glycan array binding signal (z-score) (Gal3S(b1-4)Glc6S): -0.527
- glycan array binding signal (z-score) (Gal3S(b1-4)GlcNAc): -0.543
- glycan array binding signal (z-score) [12]: 0.665
- glycan array binding signal (z-score) [13]: 1.42
- glycan array binding signal (z-score) [14]: -0.545
- glycan array binding signal (z-score) (Gal3S4S(b1-4)GlcNAc): -0.54
- glycan array binding signal (z-score) (Gal3S6S(b1-4)GlcNAc): -0.554
- glycan array binding signal (z-score) (Gal3S6S(b1-4)GlcNAc6S): -0.551
- glycan array binding signal (z-score) (Gal4S(b1-4)GlcNAc): -0.518
- glycan array binding signal (z-score) (Gal4S6S(b1-4)GlcNAc): -0.547
- glycan array binding signal (z-score) (Gal6P(b1-4)GlcNAc): -0.549
- glycan array binding signal (z-score) (Gal6S(b1-3)GlcNAc): -0.555
- glycan array binding signal (z-score) (Gal6S(b1-3)GlcNAc6S): -0.559
- glycan array binding signal (z-score) (Gal6S(b1-4)Glc): -0.53
- glycan array binding signal (z-score) (Gal6S(b1-4)Glc6S): -0.533
- glycan array binding signal (z-score) (Gal6S(b1-4)GlcNAc): -0.544
- glycan array binding signal (z-score) (Gal6S(b1-4)GlcNAc6S): -0.555
- glycan array binding signal (z-score) (GalNAc(a1-3)Gal): -0.483
- glycan array binding signal (z-score) (GalNAc(a1-3)GalNAc): -0.513
- glycan array binding signal (z-score) [15]: -0.524
- glycan array binding signal (z-score) [16]: -0.444
- glycan array binding signal (z-score) (GalNAc(b1-3)Gal): -0.536
- glycan array binding signal (z-score) [17]: -0.547
- glycan array binding signal (z-score) [18]: -0.558
- glycan array binding signal (z-score) [19]: -0.516
- glycan array binding signal (z-score) (GalNAc(b1-3)GalNAc): -0.376
- glycan array binding signal (z-score) (GalNAc(b1-3)GlcNAc): -0.555
- glycan array binding signal (z-score) (GalNAc(b1-4)Gal(b1-4)Glc): -0.53
- glycan array binding signal (z-score) (GalNAc(b1-4)GlcNAc): -0.549
